# Reference: the supplement of paper PMC11417369
# The list shows a part of the results.
# System: PF3D7_0420300 AP2 domain 1 (GST-tagged)
# Experiment: gcPBM binding intensity (ln(normalized median fluorescence intensity)); higher = stronger DNA binding
# Procedure, shortened: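 Each value is the highest Masliner-normalised natural-log median intensity across replicate spots of either orientation of a probe. The probes were primer-extended double-stranded 36-bp intergenic genomic sequences on an Agilent 4 × 180k array, alongside negative controls, exposed for 1 h to GST-tagged P. falciparum DNA-binding domains expressed in E. coli. Bound protein was picked up with Alexa488 anti-GST antibody and scanned at 488 nm.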
row,Sequence,gcPBM binding intensity (ln)
1,AAAAAAATAATTTGTAGTACGATTCAATGAAAAGGC [XGTACX_site1287],9.53
2,CCCACAAAGGAATATACACACATATATATATATATA [CACACA_site4091],9.4
3,TAAATATTTTTTTAGACACACATATATCTATGATAT [CACACA_site1107],9.11
4,TTGAAAATGAAAAAATGTACTTAAAAAAAAGGAACA [XGTACX_site8664],9.54
5,TCTTTGAATTTTTTAACACACACATGGGTGGATATA [CACACA_site8474],9.53
6,ATAAAATTGTATAACTGTACATATATATATATATAT [XGTACX_site5596],9.26
7,ATGCTATATTAAAAACGTACAAACTGTTTAGAAAAA [XGTACX_site8943],9.12
8,GGATATAACAGACACACACACACATATAAATATATT [CACACA_site7866],10.1
9,TTTTTTCTTAAAGACATATATTTATTTGGTAAAACA [XGTACX_negctrl_site243],8.85
10,CAAAATAAAAATTAATGTACATAAAAAATGAATATA [XGTACX_site1085],9.39
11,ACAGGAAAAAACAATTGTACATGTATATATATATAT [XGTACX_site7677],9.58
12,ATATATATATATATATGTACATATTTTATTTGAAAT [XGTACX_site7411],9.1
13,AAGACAATATATGCAGTGCATATACATACATATATA,9.18
14,GCATAATATACTCTTACACACCATTTCTAAATACAT [CACACA_site4912],9.76
15,AAAAAAAAAAAAAAAAGTACGTATTTTTTTTAAAAT [XGTACX_site2654],8.91
16,TTGTTATATTACAGTAGTACATTTAAAATCTACTAC [XGTACX_site2620],9.05
17,TTTTTTTTTTTTTTTTGTACGTAAAAAAATATATAC [XGTACX_site1290],8.75
18,AATATTTATACTATAACACACATACAGACAAAAAAA [CACACA_site6396],9.7
19,TTACATTATATACATACACACCCACCCACAAAAAAA [CACACA_site8187],10.1
20,ATTTTTATTTACAACCCCAAAAAGGAAAAACATAAA [CACACA_negctrl_site1169],9.17
21,ATAATATCATCAAACGCACACATACATAAATATATT [CACACA_site5230],9.55
22,ACATATTATATGAATACACACAAAAACTTATCGGTA [CACACA_site3439],9.79
23,TATTTTTATAATATATGTACATATATATATATATTA [XGTACX_site5343],9.17

row,Sequence,gcPBM binding intensity (ln)
1,AAATAATTAGAAATAGTGCACATAATTAAGGGATAC,9.74
2,TAGAAATATATAAATTGTACATGTTTGTATAATATA [XGTACX_site2097],9.22
3,TGGATTTTGTATTAATGTACATATATATATATATAT [XGTACX_site4442],9.29
4,TATATTATTTATTAGACACACATTATTAATATATTT [CACACA_site1078],9.28
5,AACAACATTTTGTAATGTACATATTTACTTATATTC [XGTACX_site7251],9.15
6,CAGATAGACTTATATGCATGCATTCACATACCAACA [TGCATGCA_site163],9.27
7,GGTTAACATAAATATATACACACCAATGATGGCATT [CACACA_site1568],9.36
8,TGAAAAGTAAAATACACACACATAATCTAATTTATA [CACACA_site7024],9.65
9,CCTCTTAATATGTGCACACTAAATTATAACATAATT [CACACA_site3259],9.37
10,TATTTGTTTTTATATAGTACATAAATATATATATAT [XGTACX_site7834],9.28
11,AAAATAAATATGAACACACACATTTATGCCTTTAAA [CACACA_site1271],9.66
12,TATATACAAAAAATATGTACATATATATATATATAT [XGTACX_site3497],9.21
13,AGAGATATAAGAAAAGCACACACACCCAAAAAAAAA [CACACA_site8917],9.92
14,AAAAAATAAATAAATACACACACACTAATATATATA [CACACA_site8488],10.1
15,ATTATTTATATTATGGTGCATAATTTTGGGTTTCTT,9.57
16,TATATTATTTATTTTTGTACATATTATGAATGAATA [XGTACX_site3971],9.1
17,TTACCTTTAAATGGATGTACAGAAATTTAAATTGTT [XGTACX_site7044],9.07
18,CTTCCTTCTAAATGCACACGGAAAGTATAAATGTAT [CACACA_site2501],9.25
19,TTTTTTTTTTTAAATACATGCATGTCCTATTTAAAT [TGCATGCA_site494],9.07
20,TTTTTTTGATAAAAGGTGCTACAAGATGAATACATA,9.04
21,ATAAATAAAAAAAAAAAAAAAAAAAAAAAAAAAATA [CACACA_negctrl_site1064],9.26
22,GTTGTATAAAATAATACATGCATGTCCTACATATAT [TGCATGCA_site162],9.5
23,GTAATATATTTTTATGGTACACGAACTAGCCAAAAA [XGTACX_site6307],9.27

row,Sequence,gcPBM binding intensity (ln)
1,TAATATATTTATAAGTGTACACATTATATAAATCCC [XGTACX_site8875],9.25
2,CCGCATTTTACAGACACACACAATTTATATTACGGT [CACACA_site6974],9.61
3,AGTAATAACTATATATGTACATATATATATTATTAG [XGTACX_site1113],9.23
4,TCAGAGTGAAGTTATACACACATGGTTTTTTTTTTT [CACACA_site2116],9.47
5,AGAGAGAAAGCTATAACATGCAACAATTTTTAGAAA [TGCATGCA_site95],9.27
6,AGGAGGATATTACACAGTACCCAGTAACTCTACGGA [XGTACX_site1998],9.2
7,AAGTATGCGTTATATACACACATACATTTATATATC [CACACA_site6207],9.47
8,TTCTAATATTTACATAATATATAGAAATATAAAGGT [XGTACX_negctrl_site504],9.15
9,AAATATAAACTCAGCACACAAACATATATATGTCAT [CACACA_site4004],9.65
10,TTTTTTTTTTTTTCTCGTACAAAATAATACCTTTTT [XGTACX_site3867],8.91
11,ATGGTATAAAAAAATACACACTTATATATATTCTTA [CACACA_site4427],9.36
12,GTAGACATTATAATGGTGCAAAAAAATTAACAAAAA [GTGCAC_site9891],9.17
13,AAAAAAAACGGACACACACACATACAAAATATATAT [CACACA_site4910],10.2
14,AGGGAATATTTTTATGCATGTGCTTACACATTACAA [TGCATGCA_site830],9.24
15,AAAAAAAAAAAAAAAAAAAAATATATATATATATAT [GTGCAC_negctrl_site426],9.06
16,AAAAGTATAATAAATTGTACTAACAAATATTTATGT [XGTACX_site7721],9.26
17,TAAAATTTTGTTTGTTGTACTTATTTTCGTGTCAAC [XGTACX_site8277],9.22
18,AAAGATGAATTTTTTACACACACCATTTTATAATAT [CACACA_site3676],9.75
19,AATGTAAAACCTCCTACACACACCAATTAACTATTC [CACACA_site2112],9.84
20,TACTTATCGTTAAATTGTACTAAAAAATATTTTTCT [XGTACX_site4665],9.17
21,AAAAAAGAAGAGCACACACACATATATAAATATAAA [CACACA_site631],10
22,TTATAATAAAAGGCTTTACAATTATTAAACAAATAA [GTGCAC_negctrl_site480],8.98
23,GCCATTGTACCATCCACACACATATATATCTGTATA [CACACA_site5490],10.1

row,Sequence,gcPBM binding intensity (ln)
1,TGGTATTAAGGAGAGGGTACAAAAAAAAAAAAAAAA [XGTACX_site1668],8.65
2,TATATATATATATATACACACATATATATATTTTTC [CACACA_site3983],9.35
3,AATTTAAAGAATTGTAGTACAATGAAATATATATAA [XGTACX_site7970],9.22
4,CATTAAACCGTGGGAGCACACACACCCACCCACCCA [CACACA_site8000],9.87
5,ATCATTATATTATGGTGTACCCATATATAATTATCA [XGTACX_site551],9.19
6,AACAATGGATTATTCACACATAAAAAAATTCACATT [CACACA_site5437],9.29
7,AATACCTATGGAATTAATAATATGTGTACAGACACA [TGCATGCA_negctrl_site547],9.24
8,AAAAAAATATATATATGTACATAACTTTGTTGTGAT [XGTACX_site5243],9.32
9,TGTTAAATTATTTATCAGATTATTATTTGTAAATAA [CACACA_negctrl_site1535],8.74
10,TTTGAACATTTTGCAAGTACAAAAAAATAATATATC [XGTACX_site8079],9.08
11,AAGAAAAGCATAGATGCACACATATATATATATATA [CACACA_site8675],9.58
12,GGAACTTAAAAAAAATGTACTTATAAAAAAGGAAAT [XGTACX_site8186],9.17
13,AACATGCAAACATGCACACAGAAAAAAAAAATATAT [CACACA_site1565],9.51
14,TTACACATACATATGTGGGAAAATATTGCTACATAT [CACACA_negctrl_site463],9.36
15,AAAAATGGTGTTAACACACACATATAAATAAATATA [CACACA_site6412],9.33
16,AAGGATCACCCACAAACACACATATATATATATATA [CACACA_site559],9.76
17,TAAATGTGAAATTTTATATTTTATATAATATACAAT [CACACA_negctrl_site76],8.88
18,AACATAAGTAATATTTGTACATATATAATAATATAT [XGTACX_site5123],9.31
19,ATCATATTTTTATGTGTGCACTTTTTTTTTTTTTTT [GTGCAC_site9555],9.54
20,CTCTTATACATATTCCTGCACTTATTTTTAAAAACA [GTGCAC_site9620],9.36
